Whole data set: some 33,000 sequences, median “E-score (-0.5 to 0.5)” near -0.013, cut for the highest 2% near 0.3. This is one part of the list.
What follows are sequences tested against T1, Msn1 (UniProt P22148) (assay: PBM E-score (8-mer binding enrichment) (E-score (-0.5 to 0.5)); higher = stronger / more preferred TF binding; most listed sequences are background and not binding sites). Details: protein concentration: 200 nM; construct: GST-full length.
T1 sequence: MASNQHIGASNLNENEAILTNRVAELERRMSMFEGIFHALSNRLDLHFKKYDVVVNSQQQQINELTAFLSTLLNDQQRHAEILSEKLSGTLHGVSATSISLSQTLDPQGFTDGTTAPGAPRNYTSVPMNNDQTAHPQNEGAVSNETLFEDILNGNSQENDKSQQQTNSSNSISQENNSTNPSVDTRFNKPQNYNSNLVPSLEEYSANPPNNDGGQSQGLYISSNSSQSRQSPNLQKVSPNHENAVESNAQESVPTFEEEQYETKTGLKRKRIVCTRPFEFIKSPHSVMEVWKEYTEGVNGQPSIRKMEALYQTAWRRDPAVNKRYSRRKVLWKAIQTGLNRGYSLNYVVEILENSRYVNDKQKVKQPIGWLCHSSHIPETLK
Method: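 Universal 'all 10-mer' protein binding microarrays (Agilent AMADID 015681) probed with GST-tagged S. cerevisiae TFs (full-length or DBD) made by in vitro transcription/translation (PURExpress), about 100-200 nM. Bound TF was detected with fluorescent anti-GST. Each ungapped 8-mer (which stands for itself and its reverse complement) is scored by the PBM enrichment score (E-score), a modified Wilcoxon-Mann-Whitney statistic from -0.5 to +0.5, computed with the Universal PBM Analysis Suite. Scale: above 0.35 generally sequence-specific binding.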

Row | Sequence | PBM E-score
1 | CCCTCTCG | -0.0829
2 | CTCATTGC | -0.045
3 | GAATTTCA | -0.0153
4 | ATTAGATA | -0.0356
5 | AGCCTCCA | -0.345
6 | CAACCAAC | -0.068
7 | TTCGGAAA | 0.0991
8 | AGGACGGG | -0.177
9 | TAGCGTAA | 0.0836
10 | CCTGACGA | 0.0724
11 | CGCCCTTC | -0.179
12 | CTAGCCTA | -0.0301
13 | GGTACAAC | 0.188
14 | CTCTGCGC | 0.141
15 | AGTATTGC | 0.0171
16 | CCCGCTAG | -0.156
17 | CAGAGTTC | -0.0226
18 | GCTAAAAC | -0.0224
19 | CGCCTCAC | -0.0815
20 | GGTGTCAA | -0.129
21 | GAACTTCA | 0.0885
22 | GAGATAGC | -0.267

Row | Sequence | PBM E-score
23 | AGTGCCGA | -0.0137
24 | AAGTTGTG | 0.00547
25 | CACACGAC | -0.0129
26 | ATTACACG | 0.0529
27 | AACAAATA | 0.211
28 | AGGCTTAC | -0.016
29 | AAAAACGT | 0.177
30 | CGGCATAC | 0.0828
31 | CCGGACTA | 0.16
32 | TCCCACGA | 0.0741
33 | GCTAGGTA | -0.0437
34 | AGGGTAAG | 0.00826
35 | AGATGAAT | -0.128
36 | TAAACGCA | 0.11
37 | GAACGTAC | 0.0783
38 | CTCTTTAA | 0.00419
39 | ATAACTCA | 0.0166
40 | TCAATTAA | 0.0786
41 | ACTCTTGA | -0.0139
42 | GGGCATAA | -0.0478
43 | ACCACATA | 0.0838
44 | CATACGTA | 0.111

Row | Sequence | PBM E-score
45 | GTGATCTA | 0.00906
46 | ACGCATCG | 0.0443
47 | AGGCTGAT | -0.176
48 | GCTCCCCC | -0.439
49 | CCAAAAAA | 0.253
50 | GGAGCGAC | 0.0732
51 | GAACTCTA | -0.00897
52 | CGTTGGGC | -0.214
53 | AACCAAAG | 0.132
54 | CCACGGCC | -0.207
55 | CTCAAATC | -0.119
56 | GCGAACAA | 0.198
57 | CCAGGGGG | -0.409
58 | CCGGGGTA | -0.118
59 | ACTGGCCC | -0.17
60 | AATGTGGG | -0.0572
61 | AAGAGACA | 0.288
62 | ACCGCCCA | -0.152
63 | AACAGGGC | -0.0687
64 | GCGTCTCA | -0.163
65 | TTACCGAA | 0.148
66 | ACCTACTA | 0.036

Row | Sequence | PBM E-score
67 | ACTGTGAG | -0.00926
68 | CTATCACA | 0.0627
69 | GCTTACCA | 0.0274
70 | TGATATCA | -0.0826
71 | ATAGGATC | 0.0486
72 | ATTATGCG | 0.141
73 | CAAACCTA | 0.0463
74 | AGCATTCC | -0.00952
75 | CAACATAG | -0.0484
76 | CTTTTTTA | 0.139
77 | GCGATGTA | 0.108
78 | AATCAGTA | -0.0738
79 | AGTCTGTG | 0.0386
80 | GGACGTGA | 0.047
81 | ACCTCTGC | -0.027
82 | AGTACCAG | -0.0751
83 | AATGCTTC | -0.018
84 | GAGTAAAC | 0.00494
85 | GTTAGAAC | 0.087
86 | AGCTCGGG | -0.0806

Source: the supplement of paper PMC3334620
